# From the supplement of paper PMC8728848
# The list shows a part of the results.
# B1: LSL-150 (Laetiporus sulphureus), Q7Z8V1 (protein)
# chain: MTDIYIPPEGLYFRLLGFASRQVIFARNSPSPDVGLSPVNDQATDQYFSLIYGTGEHAGLYAIKSKATGKVLFSRRPAEPYVGQIDGDGRYPDNWFKIEPGKTYLSKYFRLVQPSTGTALVSRTHLQPYFWNHPQTEVFDDQYFTFLFEDHHHHHH
# Experiments:
# Test in all cases: glycan array binding signal (z-score within array); higher = stronger binding
# Conditions in all cases: glycan notation: IUPAC condensed, linker removed
# [1] = target: GlcNAc(b1-3)Gal(b1-3)GalNAc
# Outline: (§1)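 Glycan array data came from 3228 arrays in the Consortium for Functional Glycomics database, and only arrays with an available protein sequence were kept. Glycan names were put into IUPAC-condensed notation, and columns mapping to the same glycan were averaged. The binding signal is a within-array Z-score, averaged across arrays of one protein sequence run at different concentrations or buffers and across linkers. A negative Z-score can be read as non-binding.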
# GlcNAc(b1-3)Gal(b1-4)Glc = target: GlcNAc(b1-3)Gal(b1-4)Glc
# Outline: as §1
# [2] = target: GlcNAc(b1-3)Gal(b1-4)GlcNAc
# Outline: as §1
# [3] = target: GlcNAc(b1-3)Gal(b1-4)GlcNAc(b1-2)Man(a1-3)[GlcNAc(b1-3)Gal(b1-4)GlcNAc(b1-2)Man(a1-6)]Man(b1-4)GlcNAc(b1-4)GlcNAc
# Outline: as §1
# [4] = target: GlcNAc(b1-3)Gal(b1-4)GlcNAc(b1-2)Man(a1-3)[GlcNAc(b1-3)Gal(b1-4)GlcNAc(b1-2)Man(a1-6)]Man(b1-4)GlcNAc(b1-4)[Fuc(a1-6)]GlcNAc
# Outline: as §1
# [5] = target: GlcNAc(b1-3)Gal(b1-4)GlcNAc(b1-2)[GlcNAc(b1-3)Gal(b1-4)GlcNAc(b1-6)]Man(a1-6)[GlcNAc(b1-3)Gal(b1-4)GlcNAc(b1-2)Man(a1-3)]Man(b1-4)GlcNAc(b1-4)GlcNAc
# Outline: as §1
# [6] = target: GlcNAc(b1-3)Gal(b1-4)GlcNAc(b1-3)Gal(b1-4)GlcNAc
# Outline: as §1
# [7] = target: GlcNAc(b1-3)Gal(b1-4)GlcNAc(b1-3)Gal(b1-4)GlcNAc(b1-2)Man(a1-3)[GlcNAc(b1-3)Gal(b1-4)GlcNAc(b1-3)Gal(b1-4)GlcNAc(b1-2)Man(a1-6)]Man(b1-4)GlcNAc(b1-4)GlcNAc
# Outline: as §1
# [8] = target: GlcNAc(b1-3)Gal(b1-4)GlcNAc(b1-3)Gal(b1-4)GlcNAc(b1-2)Man(a1-3)[GlcNAc(b1-3)Gal(b1-4)GlcNAc(b1-3)Gal(b1-4)GlcNAc(b1-2)Man(a1-6)]Man(b1-4)GlcNAc(b1-4)[Fuc(a1-6)]GlcNAc
# Outline: as §1
# [9] = target: GlcNAc(b1-3)Gal(b1-4)GlcNAc(b1-3)Gal(b1-4)GlcNAc(b1-2)[GlcNAc(b1-3)Gal(b1-4)GlcNAc(b1-3)Gal(b1-4)GlcNAc(b1-6)]Man(a1-6)[GlcNAc(b1-3)Gal(b1-4)GlcNAc(b1-3)Gal(b1-4)GlcNAc(b1-2)Man(a1-3)]Man(b1-4)GlcNAc(b1-4)[Fuc(a1-6)]GlcNAc
# Outline: as §1
# [10] = target: GlcNAc(b1-3)Gal(b1-4)GlcNAc(b1-3)Gal(b1-4)GlcNAc(b1-3)Gal(b1-4)GlcNAc(b1-2)Man(a1-3)[GlcNAc(b1-3)Gal(b1-4)GlcNAc(b1-3)Gal(b1-4)GlcNAc(b1-3)Gal(b1-4)GlcNAc(b1-2)Man(a1-6)]Man(b1-4)GlcNAc(b1-4)GlcNAc
# Outline: as §1
# [11] = target: GlcNAc(b1-3)Gal(b1-4)GlcNAc(b1-3)Gal(b1-4)GlcNAc(b1-3)Gal(b1-4)GlcNAc(b1-2)Man(a1-3)[GlcNAc(b1-3)Gal(b1-4)GlcNAc(b1-3)Gal(b1-4)GlcNAc(b1-3)Gal(b1-4)GlcNAc(b1-2)Man(a1-6)]Man(b1-4)GlcNAc(b1-4)[Fuc(a1-6)]GlcNAc
# Outline: as §1
# [12] = target: GlcNAc(b1-3)Gal(b1-4)GlcNAc(b1-3)Gal(b1-4)GlcNAc(b1-3)Gal(b1-4)GlcNAc(b1-2)[GlcNAc(b1-3)Gal(b1-4)GlcNAc(b1-3)Gal(b1-4)GlcNAc(b1-3)Gal(b1-4)GlcNAc(b1-6)]Man(a1-6)[GlcNAc(b1-3)Gal(b1-4)GlcNAc(b1-3)Gal(b1-4)GlcNAc(b1-3)Gal(b1-4)GlcNAc(b1-2)Man(a1-3)]Man(b1-4)GlcNAc(b1-4)[Fuc(a1-6)]GlcNAc
# Outline: as §1
# [13] = target: GlcNAc(b1-3)Gal(b1-4)GlcNAc(b1-3)Gal(b1-4)GlcNAc(b1-3)Gal(b1-4)GlcNAc(b1-3)Gal(b1-4)GlcNAc(b1-2)Man(a1-3)[GlcNAc(b1-3)Gal(b1-4)GlcNAc(b1-3)Gal(b1-4)GlcNAc(b1-3)Gal(b1-4)GlcNAc(b1-3)Gal(b1-4)GlcNAc(b1-2)Man(a1-6)]Man(b1-4)GlcNAc(b1-4)GlcNAc
# Outline: as §1
# [14] = target: GlcNAc(b1-3)Gal(b1-4)GlcNAc(b1-3)Gal(b1-4)GlcNAc(b1-3)Gal(b1-4)GlcNAc(b1-3)Gal(b1-4)GlcNAc(b1-2)Man(a1-3)[GlcNAc(b1-3)Gal(b1-4)GlcNAc(b1-3)Gal(b1-4)GlcNAc(b1-3)Gal(b1-4)GlcNAc(b1-3)Gal(b1-4)GlcNAc(b1-2)Man(a1-6)]Man(b1-4)GlcNAc(b1-4)[Fuc(a1-6)]GlcNAc
# Outline: as §1
# [15] = target: GlcNAc(b1-3)Gal(b1-4)GlcNAc(b1-3)Gal(b1-4)GlcNAc(b1-3)Gal(b1-4)GlcNAc(b1-3)Gal(b1-4)GlcNAc(b1-2)[GlcNAc(b1-3)Gal(b1-4)GlcNAc(b1-3)Gal(b1-4)GlcNAc(b1-3)Gal(b1-4)GlcNAc(b1-3)Gal(b1-4)GlcNAc(b1-6)]Man(a1-6)[GlcNAc(b1-3)Gal(b1-4)GlcNAc(b1-3)Gal(b1-4)GlcNAc(b1-3)Gal(b1-4)GlcNAc(b1-3)Gal(b1-4)GlcNAc(b1-2)Man(a1-3)]Man(b1-4)GlcNAc(b1-4)[Fuc(a1-6)]GlcNAc
# Outline: as §1
# [16] = target: GlcNAc(b1-3)Gal(b1-4)GlcNAc(b1-3)Gal(b1-4)GlcNAc(b1-3)GalNAc
# Outline: as §1
# [17] = target: GlcNAc(b1-3)Gal(b1-4)GlcNAc(b1-3)GalNAc
# Outline: as §1
# [18] = target: GlcNAc(b1-3)Gal(b1-4)GlcNAc(b1-3)[GlcNAc(b1-3)Gal(b1-4)GlcNAc(b1-3)]GalNAc
# Outline: as §1
# [19] = target: GlcNAc(b1-3)Gal(b1-4)GlcNAc(b1-6)[Gal(b1-3)]GalNAc
# Outline: as §1
# [20] = target: GlcNAc(b1-3)Gal(b1-4)GlcNAc(b1-6)[GlcNAc(b1-3)Gal(b1-3)]GalNAc
# Outline: as §1
# [21] = target: GlcNAc(b1-3)Gal(b1-4)GlcNAc(b1-6)[GlcNAc(b1-3)]Gal(b1-4)GlcNAc
# Outline: as §1
# GlcNAc(b1-3)GalNAc = target: GlcNAc(b1-3)GalNAc
# Outline: as §1
# GlcNAc(b1-3)Man = target: GlcNAc(b1-3)Man
# Outline: as §1
# [22] = target: GlcNAc(b1-3)[GlcNAc(b1-4)][GlcNAc(b1-6)]GlcNAc
# Outline: as §1
# [23] = target: GlcNAc(b1-3)[GlcNAc(b1-6)]Gal(b1-4)GlcNAc
# Outline: as §1
# [24] = target: GlcNAc(b1-3)[GlcNAc(b1-6)]GalNAc
# Outline: as §1
# [25] = target: GlcNAc(b1-4)Gal(b1-4)GlcNAc
# Outline: as §1
# GlcNAc(b1-4)GlcNAc = target: GlcNAc(b1-4)GlcNAc
# Outline: as §1
# [26] = target: GlcNAc(b1-4)GlcNAc(b1-4)GlcNAc
# Outline: as §1
# [27] = target: GlcNAc(b1-4)GlcNAc(b1-4)GlcNAc(b1-4)GlcNAc(b1-4)GlcNAc
# Outline: as §1
# [28] = target: GlcNAc(b1-4)GlcNAc(b1-4)GlcNAc(b1-4)GlcNAc(b1-4)GlcNAc(b1-4)GlcNAc
# Outline: as §1
# [29] = target: GlcNAc(b1-4)[GlcNAc(b1-6)]GalNAc
# Outline: as §1
# [30] = target: GlcNAc(b1-6)Gal(b1-4)GlcNAc
# Outline: as §1
# GlcNAc(b1-6)GalNAc = target: GlcNAc(b1-6)GalNAc
# Outline: as §1
# [31] = target: GlcNAc6S(b1-3)Gal(b1-4)GlcNAc
# Outline: as §1
# Kdn(a2-3)Gal(b1-3)GalNAc = target: Kdn(a2-3)Gal(b1-3)GalNAc
# Outline: as §1
# Kdn(a2-3)Gal(b1-3)GlcNAc = target: Kdn(a2-3)Gal(b1-3)GlcNAc
# Outline: as §1
# Kdn(a2-3)Gal(b1-4)Glc = target: Kdn(a2-3)Gal(b1-4)Glc
# Outline: as §1
# Kdn(a2-3)Gal(b1-4)GlcNAc = target: Kdn(a2-3)Gal(b1-4)GlcNAc
# Outline: as §1
# [32] = target: Kdn(a2-3)Gal(b1-4)[Fuc(a1-3)]GlcNAc
# Outline: as §1
# Kdn(a2-6)Gal(b1-4)GlcNAc = target: Kdn(a2-6)Gal(b1-4)GlcNAc
# Outline: as §1
# [33] = target: Man(a1-2)Man(a1-2)Man(a1-3)Man
# Outline: as §1
# [34] = target: Man(a1-2)Man(a1-2)Man(a1-6)[Man(a1-3)]Man
# Outline: as §1
# Man(a1-2)Man(a1-3)Man = target: Man(a1-2)Man(a1-3)Man
# Outline: as §1
binder,measurement,setting,value
B1,glycan array binding signal (z-score),[1],-0.199
same,glycan array binding signal (z-score),GlcNAc(b1-3)Gal(b1-4)Glc,-0.19
same,glycan array binding signal (z-score),[2],-0.179
same,glycan array binding signal (z-score),[3],0.096
same,glycan array binding signal (z-score),[4],0.158
same,glycan array binding signal (z-score),[5],-0.047
same,glycan array binding signal (z-score),[6],0.299
same,glycan array binding signal (z-score),[7],0.937
same,glycan array binding signal (z-score),[8],1.84
same,glycan array binding signal (z-score),[9],1.08
same,glycan array binding signal (z-score),[10],4.23
same,glycan array binding signal (z-score),[11],3.62
same,glycan array binding signal (z-score),[12],3.94
same,glycan array binding signal (z-score),[13],5.26
same,glycan array binding signal (z-score),[14],4.72
same,glycan array binding signal (z-score),[15],7.09
same,glycan array binding signal (z-score),[16],-0.039
same,glycan array binding signal (z-score),[17],-0.179
same,glycan array binding signal (z-score),[18],-0.181
same,glycan array binding signal (z-score),[19],-0.191
same,glycan array binding signal (z-score),[20],-0.193
same,glycan array binding signal (z-score),[21],-0.187
same,glycan array binding signal (z-score),GlcNAc(b1-3)GalNAc,-0.21
same,glycan array binding signal (z-score),GlcNAc(b1-3)Man,-0.214
same,glycan array binding signal (z-score),[22],-0.188
same,glycan array binding signal (z-score),[23],-0.206
same,glycan array binding signal (z-score),[24],-0.208
same,glycan array binding signal (z-score),[25],-0.205
same,glycan array binding signal (z-score),GlcNAc(b1-4)GlcNAc,-0.212
same,glycan array binding signal (z-score),[26],-0.206
same,glycan array binding signal (z-score),[27],-0.203
same,glycan array binding signal (z-score),[28],-0.199
same,glycan array binding signal (z-score),[29],-0.204
same,glycan array binding signal (z-score),[30],-0.202
same,glycan array binding signal (z-score),GlcNAc(b1-6)GalNAc,-0.197
same,glycan array binding signal (z-score),[31],-0.202
same,glycan array binding signal (z-score),Kdn(a2-3)Gal(b1-3)GalNAc,-0.201
same,glycan array binding signal (z-score),Kdn(a2-3)Gal(b1-3)GlcNAc,-0.202
same,glycan array binding signal (z-score),Kdn(a2-3)Gal(b1-4)Glc,-0.206
same,glycan array binding signal (z-score),Kdn(a2-3)Gal(b1-4)GlcNAc,-0.198
same,glycan array binding signal (z-score),[32],-0.202
same,glycan array binding signal (z-score),Kdn(a2-6)Gal(b1-4)GlcNAc,-0.206
same,glycan array binding signal (z-score),[33],-0.205
same,glycan array binding signal (z-score),[34],-0.207
same,glycan array binding signal (z-score),Man(a1-2)Man(a1-3)Man,-0.213
